For 172 sequences, binding signal results are on record in article PMC6212790.

This is one part of the list. At the low end of the ranking, values are background and their order means little.

This assay addresses T1, GST-Rok (full length) (UniProt O34857).
T1 sequence: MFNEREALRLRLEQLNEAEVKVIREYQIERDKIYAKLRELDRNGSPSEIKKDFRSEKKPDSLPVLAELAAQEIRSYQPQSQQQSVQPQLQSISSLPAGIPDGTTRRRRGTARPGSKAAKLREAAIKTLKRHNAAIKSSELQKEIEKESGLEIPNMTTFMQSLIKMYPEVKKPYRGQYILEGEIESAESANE
Put plainly: protein binding microarray.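 Also: rank score from −0.5 (least bound) to 0.5 (best bound).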 As to conditions: Rok is a gene silencer of Bacillus subtilis; high values mean tight binding; most listed sequences are background and not binding sites; double strand, one strand shown.
CGAGCGTC returned a binding signal of -0.314 E-score.

For the sequence TAAGTCTA, the binding signal was 0.207 E-score.

Sequence CGTCCACA yielded a binding signal of -0.0421 E-score.

Take CCCACTTC: the binding signal was -0.152 E-score.

In turn, CGAGTGAG yielded a binding signal of 0.0112 E-score.

Sequence CCTCAAGG showed a binding signal of -0.342 E-score.

Sequence ACCTTCAA registered a binding signal of -0.196 E-score.

Sequence AATCCGCG displayed a binding signal of -0.0736 E-score.

In turn, ATAGAAAA returned a binding signal of 0.324 E-score.

For GAGGGCAC, the binding signal was -0.241 E-score.

Regarding ATGGTAAT, the binding signal stood at 0.208 E-score.

GACTGAGC returned a binding signal of -0.0481 E-score.

As to CACGCGTA, the binding signal amounted to 0.0489 E-score.

Take CCACACTC: the binding signal was -0.193 E-score.

The sequence ATTGCCAG showed a binding signal of 0.0373 E-score.

For TCGACGCA, the binding signal was -0.0236 E-score.

In the case of ATCATGGA, the binding signal is -0.0894 E-score.

As for CGAGGAAA, the binding signal is -0.208 E-score.

For the sequence TACCCCTA, the binding signal is -0.0499 E-score.

The sequence CGTATGGA gave a binding signal of 0.128 E-score.

In turn, AGAGTCAC came in with a binding signal of -0.0764 E-score.

Sequence AGCTCGAA gave a binding signal of -0.0766 E-score.

With CTTCGTCC, the binding signal is -0.0852 E-score.

Take GGGAGGGA: the binding signal is -0.238 E-score.

As to CCAACTCC, the binding signal is -0.184 E-score.

Turning to ATAGCACG, the binding signal was found to be 0.14 E-score.

CCTGAACC gave a binding signal of -0.296 E-score.

Regarding AGGCTCAA, the binding signal was -0.262 E-score.

Sequence CCAAGTCG showed a binding signal of -0.224 E-score.

As to ATGCACGA, the binding signal is -0.167 E-score.

The sequence ATCCCAAA yielded a binding signal of 0.0535 E-score.

On to TAATGCAA, for which the binding signal stood at 0.167 E-score.

Take GTCTTAAC: the binding signal is -0.179 E-score.

As to CCCGCGCA, the binding signal is -0.303 E-score.

In turn, GTGATGTA showed a binding signal of 0.013 E-score.

As to ATGCGTTG, the binding signal was -0.062 E-score.

As for CCGACATA, the binding signal came to 0.0114 E-score.

On to ACTATGTC, for which the binding signal came out at 0.0845 E-score.

Consider CCCCAGCG, for which the binding signal was -0.305 E-score.

The sequence AGTACCTG registered a binding signal of 0.00392 E-score.

With AGTGTAAT, the binding signal was 0.188 E-score.

TTAAGGAA: the binding signal is -0.128 E-score.

Sequence AGTTTGCA returned a binding signal of 0.159 E-score.

Take ACCTCTGG: the binding signal is -0.232 E-score.

Regarding GTCGGCAA, the binding signal is -0.0858 E-score.

CAATTCAA returned a binding signal of 0.045 E-score.

In turn, GTAGTAAA displayed a binding signal of 0.348 E-score.

For AACTGGTC, the binding signal was -0.113 E-score.

The sequence TACTTAAA registered a binding signal of 0.161 E-score.

As to CGAGAAAA, the binding signal worked out at 0.0282 E-score.

Regarding ACTTCGCG, the binding signal is -0.0373 E-score.

Sequence GCACCTGA came in with a binding signal of -0.169 E-score.

As for ACGACCGA, the binding signal was -0.0156 E-score.

In the case of GGCGCGAC, the binding signal is -0.107 E-score.

CCCAATGA registered a binding signal of -0.304 E-score.

For the sequence AATTTAAG, the binding signal amounted to 0.18 E-score.

As to AAATCTTG, the binding signal stood at 0.0905 E-score.

Turning to CGAACTAC, the binding signal was determined as 0.358 E-score.

As for GGTCCTAC, the binding signal is 0.0108 E-score.

Regarding GCCAGCAA, the binding signal was -0.00575 E-score.

For GCCCGATA, the binding signal worked out at 0.0089 E-score.

In turn, CAGCGAAA showed a binding signal of 0.022 E-score.

Consider CAATGGTG, for which the binding signal was -0.0306 E-score.

GCAACAGC had a binding signal of -0.182 E-score.

AACATGTG had a binding signal of 0.0924 E-score.

As for ACTCGCAA, the binding signal amounted to 0.0596 E-score.

As to CGGCCCGA, the binding signal was -0.264 E-score.

Sequence AGCTCGCA came in with a binding signal of -0.182 E-score.

In the case of ACCATACT, the binding signal is 0.229 E-score.

Consider GTTAGAAA, for which the binding signal came out at 0.227 E-score.

Take TAATCTCA: the binding signal stood at 0.191 E-score.

On to CGTGTTTA, for which the binding signal was determined as 0.0967 E-score.

CATGGGTC returned a binding signal of -0.0833 E-score.

As to CTCCCCTA, the binding signal is -0.284 E-score.

As for GCCCGGAC, the binding signal was -0.33 E-score.

Take TCCCTACA: the binding signal was -0.00586 E-score.

In turn, AGGTATAG showed a binding signal of 0.233 E-score.

For AACGAAGC, the binding signal is -0.108 E-score.

ACGACTCC came in with a binding signal of -0.217 E-score.

With GATTGCAC, the binding signal is -0.0936 E-score.

Sequence AGCCGGGA registered a binding signal of -0.232 E-score.

In turn, ACCATGGC had a binding signal of -0.102 E-score.

With CAAACACG, the binding signal came to 0.0393 E-score.

The sequence CCCAGTTC registered a binding signal of -0.23 E-score.

Consider CTCGGTGC, for which the binding signal was -0.103 E-score.

AGATGTTG: the binding signal was found to be 0.0239 E-score.

Turning to CGAAGAAC, the binding signal was -0.0769 E-score.

GTCACGAC had a binding signal of -0.159 E-score.

CGAATCTC returned a binding signal of -0.0708 E-score.

The sequence GTAACGAA displayed a binding signal of 0.17 E-score.

Sequence GGTGTTTA showed a binding signal of 0.045 E-score.

For the sequence AAATAAGT, the binding signal came out at 0.131 E-score.

Regarding ACAAATCG, the binding signal was 0.0545 E-score.

ATGCTGAC showed a binding signal of -0.12 E-score.

Turning to ATGTCGCG, the binding signal is -0.0435 E-score.

CGGGAATA returned a binding signal of 0.0227 E-score.

ACGTATCT: the binding signal was determined as 0.213 E-score.

In turn, CTGGTTGA showed a binding signal of -0.108 E-score.

As to AAGATGTC, the binding signal is -0.237 E-score.

The sequence CAACAAGG returned a binding signal of -0.0722 E-score.

TGCATTAA yielded a binding signal of 0.25 E-score.

Consider CGGGACCG, for which the binding signal is -0.309 E-score.

Sequence AACTCGAT came in with a binding signal of -0.0422 E-score.

ACCCTGCC registered a binding signal of -0.199 E-score.

In turn, AAAAATTT had a binding signal of -0.0258 E-score.

As for ATCCAAGC, the binding signal was -0.0616 E-score.

Sequence TATCTCAA came in with a binding signal of 0.171 E-score.

For the sequence AATAATAC, the binding signal was determined as 0.332 E-score.

The sequence AGGTAAAG yielded a binding signal of -0.046 E-score.

TAGTCGGA displayed a binding signal of 0.0437 E-score.

GATATTCA came in with a binding signal of 0.209 E-score.

Sequence ACTCGAAC had a binding signal of 0.0593 E-score.

In turn, TAGAGCTA came in with a binding signal of 0.109 E-score.

In turn, AACCTTTA showed a binding signal of 0.114 E-score.

AGCCGTGC yielded a binding signal of -0.157 E-score.

Turning to AGTCGCTC, the binding signal is -0.207 E-score.

As for CCCTTCCC, the binding signal was -0.388 E-score.

As to ATTTACAG, the binding signal was determined as 0.24 E-score.

Sequence ACTGGCTG yielded a binding signal of -0.15 E-score.

As for CCAGCGGG, the binding signal was -0.322 E-score.

Turning to GAGCACTA, the binding signal is -0.168 E-score.

For the sequence ACGCCATC, the binding signal is -0.182 E-score.

CGTACCAG displayed a binding signal of -0.248 E-score.

Regarding CAACACGC, the binding signal is -0.0842 E-score.

For ACATCGCA, the binding signal is -0.0466 E-score.

ACACACCA yielded a binding signal of 0.0867 E-score.

The sequence ACTGCGAT yielded a binding signal of -0.0287 E-score.

Consider AATTCCTC, for which the binding signal was -0.183 E-score.

Take CCGTAGGA: the binding signal is -0.205 E-score.

With ACCGTCAG, the binding signal was -0.081 E-score.

As to TTCCTAAA, the binding signal was found to be 0.0568 E-score.

In turn, CCAATCGG showed a binding signal of -0.292 E-score.

AGGTCTGG gave a binding signal of -0.0443 E-score.

As for AGTTCTAG, the binding signal is 0.335 E-score.

Sequence AGGGGCGA had a binding signal of -0.271 E-score.

For TTCATCAA, the binding signal is 0.0554 E-score.

ACTCCCAG gave a binding signal of -0.218 E-score.

The sequence GTATCAAC returned a binding signal of 0.151 E-score.

Take AGTGGGAT: the binding signal was -0.132 E-score.

As for GGAAAATA, the binding signal stood at 0.37 E-score.

As for CCAATCAC, the binding signal was -0.0893 E-score.

GAATACTC yielded a binding signal of 0.0435 E-score.

On to AGAGAGAC, for which the binding signal is -0.305 E-score.

GACACCCC had a binding signal of -0.309 E-score.

As to AAAGGCTA, the binding signal is 0.0162 E-score.

GACCGTGC: the binding signal was -0.0607 E-score.

Turning to GTACTGAC, the binding signal worked out at 0.124 E-score.

The sequence CCAATGAC came in with a binding signal of -0.159 E-score.

The sequence AAGACACC showed a binding signal of -0.165 E-score.

Turning to AGGCTGAT, the binding signal was -0.0271 E-score.

The sequence ACTTGGAC showed a binding signal of -0.0575 E-score.

In the case of ACAATCCT, the binding signal came out at 0.2 E-score.

ACCTTTGA: the binding signal was -0.0903 E-score.

The sequence AGCACAAA yielded a binding signal of 0.154 E-score.

In the case of AGCAGGTG, the binding signal was -0.239 E-score.

In turn, AGATTTTC returned a binding signal of 0.0566 E-score.

GCGGTGGA displayed a binding signal of -0.143 E-score.

As to GAGAACTC, the binding signal is -0.267 E-score.

Regarding TCCTCACA, the binding signal was found to be 0.0323 E-score.

Consider CGCGTGTC, for which the binding signal was -0.135 E-score.

The sequence AATCATAC came in with a binding signal of 0.211 E-score.

Sequence ACGCTGCG displayed a binding signal of -0.196 E-score.

For CCCTACCC, the binding signal is -0.215 E-score.

The sequence AATCAATA returned a binding signal of 0.296 E-score.

On to AGTTACTA, for which the binding signal stood at 0.345 E-score.

Regarding ACCCACAG, the binding signal is -0.0284 E-score.

AAATACAC showed a binding signal of 0.216 E-score.

With CGATGAAG, the binding signal was -0.0041 E-score.

In turn, CATGAGAC yielded a binding signal of 0.0242 E-score.

The sequence CCAACCCC gave a binding signal of -0.41 E-score.

As to GAGCGCAC, the binding signal was -0.22 E-score.

Sequence AACCCGAT came in with a binding signal of -0.0269 E-score.
